Measurements from publication PMC4336329 (PLoS ONE, 2015).
Among all 310,000 compounds or so, about 14,000 (4.5%) showed an effect of 50% or more. The effect is printed as a negative number. This is one part of the list.

What follows are compounds tested against human ether-à-go-go-related gene (hERG) potassium channel (human, UniProt Q12809) (assay: primary screen, population patch clamp on CHO cells stably expressing hERG).
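Further: peak tail current of the secondary pulse compared with the same well before compound.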

Chain of human ether-à-go-go-related gene (hERG) potassium channel (Q12809 whole entry, looked up): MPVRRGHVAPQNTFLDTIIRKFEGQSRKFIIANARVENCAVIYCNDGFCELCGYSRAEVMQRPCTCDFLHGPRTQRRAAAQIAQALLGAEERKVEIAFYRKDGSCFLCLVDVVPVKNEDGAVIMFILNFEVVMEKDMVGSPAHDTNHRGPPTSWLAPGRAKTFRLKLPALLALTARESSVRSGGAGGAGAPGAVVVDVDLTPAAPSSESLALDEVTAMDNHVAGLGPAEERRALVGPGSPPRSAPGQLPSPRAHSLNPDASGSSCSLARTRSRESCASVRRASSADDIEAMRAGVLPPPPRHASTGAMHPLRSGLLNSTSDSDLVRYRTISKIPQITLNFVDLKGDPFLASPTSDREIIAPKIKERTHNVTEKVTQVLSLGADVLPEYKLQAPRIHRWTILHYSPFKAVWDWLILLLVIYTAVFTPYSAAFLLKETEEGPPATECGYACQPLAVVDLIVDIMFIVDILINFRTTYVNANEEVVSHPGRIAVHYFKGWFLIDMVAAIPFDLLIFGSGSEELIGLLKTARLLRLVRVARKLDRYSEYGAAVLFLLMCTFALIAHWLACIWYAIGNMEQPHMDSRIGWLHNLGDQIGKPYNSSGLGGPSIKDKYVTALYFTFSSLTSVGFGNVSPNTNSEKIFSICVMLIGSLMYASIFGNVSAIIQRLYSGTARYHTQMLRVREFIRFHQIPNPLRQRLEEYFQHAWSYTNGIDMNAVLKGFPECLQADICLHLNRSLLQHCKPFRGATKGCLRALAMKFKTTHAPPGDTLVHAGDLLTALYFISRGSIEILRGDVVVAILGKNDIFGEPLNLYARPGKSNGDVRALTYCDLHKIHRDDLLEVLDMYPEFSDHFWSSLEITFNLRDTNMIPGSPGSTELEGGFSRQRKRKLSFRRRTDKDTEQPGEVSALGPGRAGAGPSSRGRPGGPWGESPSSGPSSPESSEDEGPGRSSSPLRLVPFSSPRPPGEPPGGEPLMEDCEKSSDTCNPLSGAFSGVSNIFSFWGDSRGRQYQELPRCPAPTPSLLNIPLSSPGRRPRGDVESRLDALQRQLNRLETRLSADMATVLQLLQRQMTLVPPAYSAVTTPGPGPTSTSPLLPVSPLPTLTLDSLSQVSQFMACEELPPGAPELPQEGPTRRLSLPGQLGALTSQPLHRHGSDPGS

Compound	hERG current change (%, negative = inhibition) at 10uM
Cc1cc(C)cc(NC(=O)C2C3C=CC4(O3)C2C(=O)N(CCCN2CCCCC2)C4C(=O)NC2CCCCC2)c1 (stereo not drawn)	20.7%
C1COCCO1.Cn1c2c(c(=O)n(C)c1=O)C(c1ccccc1Cl)C(C#N)=C(N)O2 (stereo not drawn)	-0.151%
CC(C)(C)NC(=O)NC(=O)CSc1n[nH]c(-c2ccccc2Br)n1	-7.9%
CC(=O)N1CCc2cc(S(=O)(=O)N3CCOCC3)ccc21	8.67%
COc1ccc(OC)c(C2NC(=O)NC(C)=C2C(=O)Nc2ccc(C)cc2C)c1 (stereo not drawn)	-11.6%
CO/N=C/CC(=O)c1ccc([N+](=O)[O-])c(CS(=O)(=O)c2ccc(Cl)cc2)c1	-19.4%
Cc1c(Br)c([N+](=O)[O-])nn1CCCC(=O)NC(C)c1ccccc1 (stereo not drawn)	-16.2%
O=C(c1ccccc1)N1CCN(c2ccc([N+](=O)[O-])cc2-n2cccc2)CC1	-54.5%
O=C(CSCC(=O)NC1CC1)Nc1ccccc1	1.08%
O=C(NCCc1ccc(C(F)(F)F)cc1)C1CCC(=O)N(CCCc2ccccc2)C1 (stereo not drawn)	-50.2%
Cc1nnc(SCCn2c(N3CCCCCC3)nc3c2c(=O)[nH]c(=O)n3C)s1	-7.4%
N#C/C(=C(/O)c1ccco1)c1nc2ccccc2[nH]1	17.4%
CCCCOCP(=O)(CC)COCCCC	7.27%
COc1cc(C(=O)Nc2ccc(C)cc2)c(-n2cnnn2)cc1OC	-1.87%
O=C(NC1CCCCC1)C(c1ccccc1F)N(Cc1ccco1)C(=O)c1ccccn1 (stereo not drawn)	-4.03%
Cc1oc2nc(SCC(=O)NC3CCCCC3)nc(N)c2c1C	-14.8%
O=C(COC(=O)c1cccc(Br)c1)NCCNC(=O)COC(=O)c1cccc(Br)c1	24%
COc1ccc(/C(N)=N/OC(=O)c2ccco2)cc1	8.02%
CNS(=O)(=O)c1cccc(C(=O)OCC(=O)Nc2ccc(-c3nc4ccc(C)cc4s3)cc2)c1	0.307%
COc1ccc(NC(=O)CSc2cn[nH]n2)cc1OC	31.4%
CCN(CC)c1c([N+](=O)[O-])c(=O)n(CC)c2ccccc12	-8.79%
Cc1ccc(N(C(=O)CNC(=O)c2ccco2)C(C(=O)NC2CCCCC2)c2cccnc2)c(C)c1 (stereo not drawn)	-71.9%
Nc1nnc(Cc2ccc(F)cc2)s1	2.22%
COC(=O)CC1(C(=O)OC)Oc2ccc(Br)cc2C(=O)N1c1ccc(Br)cc1Cl (stereo not drawn)	4.17%
